Data on 73 compounds can be found in the supplement of paper PMC8183993.

Values joined by “and” are separate entries in the source; they are usually repeats but may differ in a detail not shown here. Equal entries are not always repeated. Structures can show the parent of a compound that is named as a salt. ± gives the standard deviation of the averaged measurements. Whole data set: some 3,200 compounds, median “nuclei count (viability) relative to DMSO” near 99, cut for the lowest 2% near 16. This is one part of the list.

For the assay, the system named is U2OS. The assay is described as follows: nuclei count (viability) relative to DMSO (% of DMSO); higher = more viable cells. Conditions: 10 µM; 24 h. How it is done:
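Primary image-based screen in U2OS cells: compounds at 10 uM for 24 h, then a 1 h o-propargyl-puromycin (OPP) pulse, click labelling, and high-throughput microscopy. Mean cytoplasmic OPP intensity and nuclei count were normalised to DMSO wells within each plate (DMSO = 100) and averaged over triplicate plates.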
Regarding `COc1cccc2c1C(=O)c1c(O)c3c(c(O)c1C2=O)C[C@@](O)(C(=O)CO)C[C@@H]3O[C@H]1C[C@H](N)[C@H](O[C@@H]2CCCCO2)[C@H](C)O1` [Pirarubicin], the nuclei count amounted to 33.

Compound `COc1cc2c(NC3CCN(C(C)C)CC3)nc(N3CCC(F)(F)CC3)nc2cc1OCCCN1CCCC1` had a nuclei count of 50.6.

For the compound `CC#C[C@]1(O)CC[C@H]2[C@@H]3CCC4=CC(=O)CCC4=C3[C@@H](c3ccc(N(C)C)cc3)C[C@@]21C` [Mifepristone (Mifeprex)], the nuclei count came out at 111.

As to `CC#C[C@]1(O)CC[C@H]2[C@@H]3CCC4=CC(=O)CCC4=C3[C@@H](c3ccc(N(C)C)cc3)C[C@@]21C` [Mifepristone], the nuclei count worked out at 97.5 ± 7.4.

As for `COc1cc(SC)ccc1C(=O)N1CCC(Cc2ccccc2)CC1`, the nuclei count stood at 106.

Regarding `CC[C@@H]1C(=O)N(C)c2cnc(Nc3ccc(C(=O)N[C@H]4CC[C@H](N5CCN(CC6CC6)CC5)CC4)cc3OC)nc2N1C(C)C` [BI6727 (Volasertib)], the nuclei count is 34.4.

`CCc1cccc(CC)c1NC(=O)N1Cc2[nH]nc(NC(=O)c3ccc(N4CCN(C)CC4)cc3)c2C1` displayed a nuclei count of 44.2.

As for `Nc1c(O)cc(O)cc1C=Cc1ccc(O)cc1` [Aminoresveratrol sulfate], the nuclei count came to 86.7.

With `Nc1nc(=O)n([C@@H]2CS[C@H](CO)O2)cc1F` [(-)-Emtricitabine], the nuclei count came to 91.

Take `COc1ccc(Cl)cc1C(=O)NCCc1ccc(S(=O)(=O)NC(=O)NC2CCCCC2)cc1` [Glibenclamide]: the nuclei count came out at 103 ± 4.1.

`COc1ccc(Cl)cc1C(=O)NCCc1ccc(S(=O)(=O)NC(=O)NC2CCCCC2)cc1` [Glyburide]: the nuclei count is 102.

For the compound `C[C@@H]1C/C=C/C=C/C=C/C=C/[C@H](O[C@@H]2O[C@H](C)[C@@H](O)[C@H](N)[C@@H]2O)C[C@@H]2O[C@](O)(C[C@@H](O)C[C@H]3O[C@@H]3/C=C/C(=O)O1)C[C@H](O)[C@H]2C(=O)O` [Natamycin (Pimaricin)], the nuclei count turned out to be 108.

Compound `CC(C(O)c1ccc(O)cc1)N1CCC(Cc2ccccc2)CC1` (stereo not drawn) [Ifenprodil tartrate] yielded a nuclei count of 109.

Compound `CC(C(O)c1ccc(O)cc1)N1CCC(Cc2ccccc2)CC1` (stereo not drawn) [Ifenprodil hemitartrate] displayed a nuclei count of 88.8.

With `CCCn1c(=O)c(C)cn2nc(N)nc12`, the nuclei count came out at 81.5.

The compound `CCn1c(=O)c2c(nc(/C=C/c3ccc(OC)c(OC)c3)n2C)n(CC)c1=O` [Istradefylline (KW-6002)] registered a nuclei count of 92.8.

`Cc1ccc(OCC(O)C(C)NC(C)C)c2c1CCC2` (stereo not drawn) [ICI-118,551 hydrochloride] gave a nuclei count of 99.7.

The compound `c1ccc2cc(C3=NCCN3)ncc2c1` [BU 226 hydrochloride] gave a nuclei count of 105.

`CC1=NN(c2ccc(C)c(C)c2)C(=O)/C1=N\Nc1cccc(-c2cccc(C(=O)O)c2)c1O`: the nuclei count is 98.3.

The compound `COC(=O)N/N=C/c1c[n+]([O-])c2ccccc2[n+]1[O-]` [Carbadox] had a nuclei count of 84.8.

In turn, `CN(C(=O)CN(CCO)CC(=O)N(C)C(C)(C)Cc1ccccc1)C(C)(C)Cc1ccccc1` [Oxethazaine] came in with a nuclei count of 97.9.

In the case of `Cc1cc(C)nc(NS(=O)(=O)c2ccc(N)cc2)n1` [Sulfamethazine sodium salt], the nuclei count was 104.

Compound `Cc1cc(C)nc(NS(=O)(=O)c2ccc(N)cc2)n1` [Sulfamethazine] registered a nuclei count of 103.

With `CCN(c1ccccc1)c1cc(=NC)n(C)c(C)n1`, the nuclei count is 89.5.

The compound `COc1cc(NS(=O)(=O)c2ccc(N)cc2)ncn1` [Sulfamonomethoxine] had a nuclei count of 110.

`CC1(C)O[C@@H]2C[C@H]3[C@@H]4C[C@H](F)C5=CC(=O)C=C[C@]5(C)[C@@]4(F)[C@@H](O)C[C@]3(C)[C@]2(C(=O)CO)O1` [Fluocinolone acetonide] returned a nuclei count of 97.2.

Turning to `CC1(C)O[C@@H]2C[C@H]3[C@@H]4C[C@H](F)C5=CC(=O)C=C[C@]5(C)[C@@]4(F)[C@@H](O)C[C@]3(C)[C@]2(C(=O)CO)O1` [Fluocinolone acetonide (Flucort-N)], the nuclei count stood at 107.

As for `CC(C)[C@H](N)C(=O)OCCOCn1cnc2c(=O)nc(N)[nH]c21` [Valacyclovir hydrochloride], the nuclei count was determined as 95.8.

The compound `CN1CCN2c3ncccc3Cc3ccccc3C2C1` (stereo not drawn) [Mirtazapine] registered a nuclei count of 107.

`CN1CCN2c3ncccc3Cc3ccccc3C2C1` (stereo not drawn) [Mirtazepine] displayed a nuclei count of 83.

In turn, `CC(C)N(CC[C@H](c1ccccc1)c1cc(CO)ccc1O)C(C)C` showed a nuclei count of 98.7.

With `CCOC(=O)/C=C(C)/C=C/C=C(C)/C=C/c1c(C)cc(OC)c(C)c1C` [Etretinate], the nuclei count came out at 91.8.

Regarding `CC(C)(C)c1cc(NC(=O)Nc2ccc(-c3cn4c(n3)sc3cc(OCCN5CCOCC5)ccc34)cc2)no1` [Quizartinib (AC220)], the nuclei count turned out to be 59.4.

Consider `CN1CCN(c2ccc(-c3cccc(CN4CCOCC4)c3)cc2NC(=O)c2c[nH]c(=O)cc2C(F)(F)F)CC1`, for which the nuclei count was 108.

Regarding `Nc1nc2c(cnn2CCc2ccccc2)c2nc(-c3ccco3)nn12`, the nuclei count was found to be 102.

For `O=C(/C=C/c1cccc(S(=O)(=O)Nc2ccccc2)c1)NO` [Belinostat (PXD101)], the nuclei count amounted to 30.

As for `C=CCOc1ccccc1OCC(O)CNC(C)C` (stereo not drawn) [Oxprenolol hydrochloride], the nuclei count stood at 105.

In the case of `NC[C@H]1O[C@H](O[C@H]2[C@H](O)[C@@H](O[C@H]3O[C@H](CO)[C@@H](O)[C@H](N)[C@H]3O)[C@H](N)C[C@@H]2N)[C@H](N)C[C@@H]1O` [Tobramycin], the nuclei count was determined as 102 ± 2.4.

`Cc1c(N)c(=O)n(-c2ccccc2)n1C` [Ampyrone] gave a nuclei count of 91.4.

With `CC#CCn1c(N2CCC[C@@H](N)C2)nc2c1c(=O)n(Cc1nc(C)c3ccccc3n1)c(=O)n2C` [Linagliptin (BI-1356)], the nuclei count was 105.

In turn, `CCN(CC)CCOCCOC(=O)C1(c2ccccc2)CCCC1` [Carbetapentane citrate] gave a nuclei count of 98 ± 3.8.

Consider `COc1cc(NC(=O)c2ccccn2)ccc1Cl`, for which the nuclei count was determined as 110.

In turn, `CCN(CCCCOC(=O)c1ccc(OC)c(OC)c1)C(C)Cc1ccc(OC)cc1` (stereo not drawn) [Mebeverine hydrochloride] displayed a nuclei count of 112.

The compound `Cc1cc(C(C)(C)C)cc(C)c1CC1=NCCN1` [Xylometazoline hydrochloride] gave a nuclei count of 88.4.

`CCN(CC)C(=O)C1(c2ccccc2)CC1CN` (stereo not drawn) [Milnacipran HCl] had a nuclei count of 94.

Take `CC(C)(CO)[C@@H](O)C(=O)NCCC(=O)O` [Pantothenic acid (pantothenate)]: the nuclei count was determined as 100.

Compound `O=c1nc2ccccc2c2n1CC(CN1CCN(c3ccccc3)CC1)N2` (stereo not drawn) came in with a nuclei count of 100.

Compound `O=P(O)(O)C(O)(Cn1ccnc1)P(=O)(O)O` [Zoledronic Acid (Zoledronate)] yielded a nuclei count of 99.2.

Take `N#C/C(=C(/N)Sc1ccc(N)cc1)c1ccccc1C(F)(F)F`: the nuclei count was 100 and 106.

Consider `COc1cc2nc(N3CCN(C(=O)C4COc5ccccc5O4)CC3)nc(N)c2cc1OC` (stereo not drawn) [Doxazosin mesylate], for which the nuclei count came out at 110.

In turn, `O=c1c(O)c(-c2ccc(O)cc2)oc2cc(O)cc(O)c12` [Kaempferol] gave a nuclei count of 102.

`CCN(CC)C(=O)Nc1ccc(OCC(O)CNC(C)(C)C)c(C(C)=O)c1` (stereo not drawn) [Celiprolol HCl] came in with a nuclei count of 106.

For the compound `N[C@H]1CONC1=O` [(S)-(-)-Cycloserine], the nuclei count is 96.3.

`CCCCC1C(=O)N(c2ccccc2)N(c2ccc(O)cc2)C1=O` (stereo not drawn) [Oxyphenbutazone]: the nuclei count was 42.

`CNC(=O)c1ccc(N2C(=S)N(c3ccc(C#N)c(C(F)(F)F)c3)C(=O)C2(C)C)cc1F` [MDV3100 (Enzalutamide)] gave a nuclei count of 100.

For `COc1cc(OC)c(NC(=O)Nc2cc(C)on2)cc1Cl`, the nuclei count turned out to be 96.3.

With `CN1CCN(CCc2ccc(Cl)c(Cl)c2)CC1` [BD 1063 dihydrochloride], the nuclei count amounted to 104.

The compound `CC(=O)O[C@]1(C(C)=O)CC[C@H]2[C@@H]3C=C(Cl)C4=CC(=O)CC[C@]4(C)[C@H]3CC[C@@]21C` [Chlormadinone acetate] gave a nuclei count of 100.

The compound `CCN(CC)C(C)CN1c2ccccc2Sc2ccccc21` (stereo not drawn) [Ethopropazine hydrochloride] showed a nuclei count of 94.3.

For the compound `CCCNC(=O)NS(=O)(=O)c1ccc(Cl)cc1` [Chlorpropamide], the nuclei count came to 106.

As to `COc1ccc(-c2nc(N3CCOCC3)c3sc(CN(C)c4ncc(C(=O)NO)cn4)cc3n2)cn1`, the nuclei count worked out at 18.

As to `Cc1cnc(Nc2ccc(OCCN3CCCC3)cc2)nc1Nc1cccc(S(=O)(=O)NC(C)(C)C)c1`, the nuclei count is 7.48 and 5.57.

`CO[C@H]1/C=C/O[C@@]2(C)Oc3c(C)c(O)c4c(O)c(c5c(nc6cc(C)ccn65)c4c3C2=O)NC(=O)/C(C)=C\C=C\[C@H](C)[C@H](O)[C@@H](C)[C@@H](O)[C@@H](C)[C@H](OC(C)=O)[C@@H]1C` [Rifaximin (Xifaxan)] yielded a nuclei count of 102.

In turn, `CO[C@H]1/C=C/O[C@@]2(C)Oc3c(C)c(O)c4c(O)c(c5c(nc6cc(C)ccn65)c4c3C2=O)NC(=O)/C(C)=C\C=C\[C@H](C)[C@H](O)[C@@H](C)[C@@H](O)[C@@H](C)[C@H](OC(C)=O)[C@@H]1C` [Rifaximin] registered a nuclei count of 91.4.

For the compound `C[C@]12C=CC(=O)N[C@@H]1CC[C@@H]1[C@@H]2CC[C@]2(C)[C@@H](C(=O)Nc3cc(C(F)(F)F)ccc3C(F)(F)F)CC[C@@H]12` [Dutasteride], the nuclei count was found to be 108.

As for `Clc1cccc(Cl)c1NC1=NCCN1` [Clonidine hydrochloride], the nuclei count amounted to 101 ± 7.6.

For the compound `CCN(CC)c1ccc(/C=N/NC(=O)c2ccc(O)cc2)cc1`, the nuclei count was determined as 89.4.

As to `Nc1nc2c(ncn2COC(CO)CO)c(=O)[nH]1` [Ganciclovir], the nuclei count amounted to 122.

The compound `Cc1csc(-c2nnc(Nc3ccc(Oc4ncccc4-c4ccnc(N)n4)cc3)c3ccccc23)c1` displayed a nuclei count of 48.1.

In the case of `CCCCCCCCCCCCCCCC(=O)OC[C@H](O)[C@H]1OC(=O)C(O)=C1O` [Ascorbyl palmitate], the nuclei count was 111.

The compound `N#C/C(=C\c1ccc(O)c(O)c1)C(=O)NCCCCc1ccccc1` registered a nuclei count of 88.3.

`CC=CC(=O)N(CC)c1ccccc1C` [Crotamiton] had a nuclei count of 97.6.

In the case of `CC1=C(C)C(=O)C(C(CCCCCC(=O)O)c2ccccc2)=C(C)C1=O` (stereo not drawn) [Seratrodast], the nuclei count turned out to be 94.6.
